Publication PMC4336329 (PLoS ONE, 2015)
Among all 310,000 compounds or so, about 14,000 (4.5%) showed an effect of 50% or more. Effects have a minus sign here. Some of the results follow.

These compounds were tested against human ether-à-go-go-related gene (hERG) potassium channel (human, UniProt Q12809) (assay: primary screen, population patch clamp on CHO cells stably expressing hERG).
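Note: peak tail current of the secondary pulse compared with the same well before compound.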

Sequence of human ether-à-go-go-related gene (hERG) potassium channel (Q12809 whole entry, looked up): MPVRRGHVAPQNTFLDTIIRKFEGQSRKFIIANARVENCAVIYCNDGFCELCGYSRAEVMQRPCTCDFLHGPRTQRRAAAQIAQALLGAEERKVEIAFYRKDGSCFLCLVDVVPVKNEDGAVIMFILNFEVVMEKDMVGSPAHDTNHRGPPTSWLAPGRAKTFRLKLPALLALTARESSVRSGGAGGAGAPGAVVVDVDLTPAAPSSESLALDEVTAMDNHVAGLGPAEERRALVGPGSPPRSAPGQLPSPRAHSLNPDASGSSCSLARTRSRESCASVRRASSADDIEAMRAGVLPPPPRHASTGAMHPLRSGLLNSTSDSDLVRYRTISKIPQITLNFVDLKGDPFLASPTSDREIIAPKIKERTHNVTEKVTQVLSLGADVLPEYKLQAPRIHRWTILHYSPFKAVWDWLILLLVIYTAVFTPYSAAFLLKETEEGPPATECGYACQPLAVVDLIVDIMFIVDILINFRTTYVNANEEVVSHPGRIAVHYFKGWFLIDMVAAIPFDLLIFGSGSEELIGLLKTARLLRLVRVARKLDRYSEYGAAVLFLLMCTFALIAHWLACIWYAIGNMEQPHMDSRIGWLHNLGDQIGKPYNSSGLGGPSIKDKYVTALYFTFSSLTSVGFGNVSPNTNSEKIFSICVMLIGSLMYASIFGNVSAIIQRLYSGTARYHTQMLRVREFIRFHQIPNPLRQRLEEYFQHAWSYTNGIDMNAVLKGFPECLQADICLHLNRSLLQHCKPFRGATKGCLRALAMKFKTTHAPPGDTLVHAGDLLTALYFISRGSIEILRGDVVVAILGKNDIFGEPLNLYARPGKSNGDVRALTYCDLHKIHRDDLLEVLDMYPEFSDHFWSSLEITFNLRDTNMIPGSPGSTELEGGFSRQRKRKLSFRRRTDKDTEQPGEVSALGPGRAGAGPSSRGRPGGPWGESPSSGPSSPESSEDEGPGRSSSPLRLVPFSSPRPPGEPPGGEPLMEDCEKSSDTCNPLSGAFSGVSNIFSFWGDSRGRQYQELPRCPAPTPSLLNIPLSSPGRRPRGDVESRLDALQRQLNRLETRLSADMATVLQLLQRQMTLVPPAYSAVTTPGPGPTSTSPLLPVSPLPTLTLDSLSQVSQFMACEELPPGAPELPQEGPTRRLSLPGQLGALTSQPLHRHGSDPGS

SMILES | hERG current change (%, negative = inhibition) at 10uM [%]
COC(=O)c1ccccc1NC(=O)CSc1nnc(-c2ccncc2)o1 | 2.32
Cc1ccc(C(=O)NC2CCN(C(=O)N3CCOCC3)CC2)cc1 | 8.72
COc1ccc(NC(=S)N2CCCN(Cc3cc(C)ccc3C)C2)cc1 | -12.7
CCN=C1SC(CC(=O)NCC)C(=O)N1CC (stereo not drawn) | -12.5
Cc1cc(S(=O)(=O)N2CCOCC2)ccc1OCC(=O)N1CCCCC1 | 14.1
NC1=NC(=O)C(CC(=O)NCc2ccccc2)S1 (stereo not drawn) | 16.1
CCCC(=O)Nc1ccc2c(c1)C(=O)N(CCC(=O)O)C2=O | 1.2
Cc1cc(NC(=O)NC(=O)c2cccc(OC(F)(F)C(F)F)c2)n[nH]1 | 7.39
CCOC(=O)c1ccc(NC(=O)CC2C(=O)N(c3ccc(F)cc3)C(=O)N2CCC(C)C)cc1 (stereo not drawn) | -8.43
O=C1CC(Sc2nnnn2-c2ccccc2)C(=O)N1c1cccc(Cl)c1 (stereo not drawn) | -7.3
Cc1occc1-c1nnc(SCC(=O)Nc2ccccc2)n1C(C)c1ccccc1 (stereo not drawn) | -37.6
O=C(COC(=O)CCCC1=NS(=O)(=O)c2ccccc2N1)Nc1ccccc1 | 24.7
O=C(CC1Nc2ccccc2NC1=O)NCCCN1CCCCCC1 (stereo not drawn) | 13.2
CCc1ccccc1NC(=S)N(CCN1CCCCC1)Cc1ccco1 | -46.7
N#C/C(=C\c1c[nH]c2ccc(Br)cc12)c1ccccn1 | 16.7
O=C(Nc1ccccc1F)Nc1cc(Cl)ccc1-n1cncn1 | 18.8
CC(C)(C)c1ccc(C(=O)NCCOc2ccccc2)cc1 | -0.785
CCc1cc(C(=O)Nc2ccccc2)cs1 | -2.26
Cc1ccc(NC(=S)NC(=O)c2ccc(F)cc2)cc1S(=O)(=O)Nc1ccccc1Cl | 6.08
CCn1nc(C)cc1C(=O)OCC(=O)c1ccc(Cl)cc1 | 12.1
COc1ccc2nc(SCC(=O)N(C)C3CCCCC3)[nH]c2c1 | 6.52
C/C(=N\NC(=O)Cc1cccc2ccccc12)c1ccncc1 | -28.4
Cc1onc(-c2ccccc2)c1C(=O)NCCc1ccc(S(N)(=O)=O)cc1 | 5.71

SMILES | hERG current change (%, negative = inhibition) at 10uM [%]
Cc1ccccc1NC(=O)Cn1nc(C)c2ccccc2c1=O | 3.92
O=C(COc1ccc(S(=O)(=O)N2CCOCC2)cc1Cl)NCCN1CCOCC1 | 4.72
O=C(Nc1ccc(CN2CCS(=O)(=O)CC2)cc1)c1ccccc1 | -0.04
Cc1cccc(C(=O)NC2CCN(C(=S)NCc3ccco3)CC2)c1 | -46.7
O=C(CCl)Nc1ccc2c(c1)OCO2 | 0.307
COc1ccc(-c2[nH]ncc2CN(CCO)Cc2cccs2)c(F)c1 | 4.65
COc1cc(OC)cc(C(=O)Oc2ccc(/C=N/Nc3nc4ccccc4s3)cc2OC)c1 | 12.3
CCC(=O)Nc1cccc(C2=NOC3(C2)C[C@@H](C(N)=O)N(C(=O)c2ccc(OC)cc2)C3)c1 (stereo partly drawn) | 4.44
CC(C)(C)c1nnc(N/N=C/c2ccccc2O)n(N)c1=O | -35
O=C1CCN(CCCc2ccccc2)CCN1[C@H](CO)Cc1ccccc1 | -40.6
COCCCNC(=S)NNC(=O)c1cc(-c2cccnc2)nc2ccccc12 | 10.8
Cc1ccc(S(=O)(=O)N2[C@@H](c3ccccc3)C(C(=O)O)=CC[C@H]2c2ccc(Cl)cc2)cc1 | 18.6
COC(=O)C12CCC3(SCCS3)C(C(=O)OC)(CCC13SCCS3)C2 | -15.9
Cc1cc(C)n(-c2nc3ccccc3nc2N2CCCCCC2)n1 | -13.5
COc1cc(C2NC(=O)NC(C)=C2C(=O)OC(C)C)ccc1OC(=O)c1ccco1 (stereo not drawn) | 5.9
CC(Oc1ccc2c3c(c(=O)oc2c1)CCCC3)C(=O)NCc1ccncc1 (stereo not drawn) | 4.36
Cc1cccc(NC(=O)c2ccccc2NC(=O)CCC(=O)O)c1 | 2.31
CCCCNC(=O)OCCNC(=O)NC | 19.4
O=C(O)CC(CNS(=O)(=O)c1ccccc1)c1ccccc1 (stereo not drawn) | 20.5
CC1CCCCN1C(=O)c1ccc(OC2CCN(S(=O)(=O)N(C)C)CC2)cc1 (stereo not drawn) | 3.61
COc1ccc(N(Cc2cc3cccc(C)c3[nH]c2=O)S(=O)(=O)c2ccc(OC)cc2)cc1 | 17.5
CCC1Nc2ncnc(N3CCN(c4ccccc4)CC3)c2N(Cc2ccc(OC)cc2)C1=O.O=C(O)C(F)(F)F (stereo not drawn) | -6.09
